# Source: article PMC4336329 (PLoS ONE, 2015)
# Hit rate of the full screen: of about 310,000 compounds, about 14,000 (4.5%) showed an effect of 50% or more. The effect is printed as a negative number. The list shows a part of the results.
# Target: human ether-à-go-go-related gene (hERG) potassium channel (human, UniProt Q12809)
# Assay: primary screen, population patch clamp on CHO cells stably expressing hERG
# 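Note: peak tail current of the secondary pulse compared with the same well before compound.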
# Sequence of human ether-à-go-go-related gene (hERG) potassium channel (Q12809 whole entry, looked up): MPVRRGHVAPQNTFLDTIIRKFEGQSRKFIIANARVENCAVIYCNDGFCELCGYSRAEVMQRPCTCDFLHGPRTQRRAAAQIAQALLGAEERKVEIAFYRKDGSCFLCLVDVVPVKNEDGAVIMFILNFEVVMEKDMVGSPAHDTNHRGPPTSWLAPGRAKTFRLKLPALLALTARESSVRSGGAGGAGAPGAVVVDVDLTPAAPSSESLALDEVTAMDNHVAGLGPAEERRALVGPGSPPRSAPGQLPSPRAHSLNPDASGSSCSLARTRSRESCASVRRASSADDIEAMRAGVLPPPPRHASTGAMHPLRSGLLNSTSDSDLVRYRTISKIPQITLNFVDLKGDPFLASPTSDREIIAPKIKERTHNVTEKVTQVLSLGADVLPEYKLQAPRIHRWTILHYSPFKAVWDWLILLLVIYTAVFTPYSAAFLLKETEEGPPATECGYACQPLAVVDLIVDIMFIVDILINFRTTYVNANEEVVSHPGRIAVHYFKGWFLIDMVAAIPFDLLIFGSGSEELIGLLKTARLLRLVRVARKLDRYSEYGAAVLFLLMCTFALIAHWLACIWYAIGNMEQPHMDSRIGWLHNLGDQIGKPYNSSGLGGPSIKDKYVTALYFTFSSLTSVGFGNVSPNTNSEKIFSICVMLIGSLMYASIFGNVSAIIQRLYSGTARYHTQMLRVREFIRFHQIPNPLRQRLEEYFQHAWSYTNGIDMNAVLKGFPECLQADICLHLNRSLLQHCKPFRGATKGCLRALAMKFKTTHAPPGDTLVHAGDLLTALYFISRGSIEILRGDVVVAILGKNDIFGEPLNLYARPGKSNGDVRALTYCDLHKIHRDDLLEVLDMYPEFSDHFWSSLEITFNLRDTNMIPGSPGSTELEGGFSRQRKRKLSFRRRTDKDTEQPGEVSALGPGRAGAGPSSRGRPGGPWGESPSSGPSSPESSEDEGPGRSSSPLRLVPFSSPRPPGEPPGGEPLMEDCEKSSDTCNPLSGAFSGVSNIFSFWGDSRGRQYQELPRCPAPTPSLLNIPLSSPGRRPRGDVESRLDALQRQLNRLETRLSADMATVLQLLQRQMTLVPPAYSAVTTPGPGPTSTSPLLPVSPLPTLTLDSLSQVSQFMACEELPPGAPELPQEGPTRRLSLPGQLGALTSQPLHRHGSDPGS
row,SMILES,"hERG current change (%, negative = inhibition) at 10uM [%]"
1,O=C(Cn1cnc2ccccc21)Nc1ccc(SC(F)F)cc1,-43.6
2,CCOC(=O)N1CCN(C(=O)COc2ccc(S(=O)(=O)Nc3ccc(OCC)cc3)cc2)CC1,5.64
3,CCC(Cc1ccccc1)NS(=O)(=O)c1csc(C(N)=O)c1 (stereo not shown),16.6
4,COc1ccc(N2C(=O)CC(N3CCN(c4ccccc4)CC3)C2=O)cc1 (stereo not shown),8.93
5,Cc1ccccc1C(=O)Nc1ccc(S(=O)(=O)N2CC(C)OC(C)C2)cc1 (stereo not shown),5.76
6,Cc1cc(C)cc(OCC(=O)NC2CCCc3ccccc32)c1 (stereo not shown),-1.2
7,COC(=O)Nc1ccc2c(c1)N(C(=O)CCCl)c1ccccc1S2,-8.44
8,COc1ccc(C)cc1N(C(=O)c1ccc(F)cc1)c1nc2ccccc2s1,3.1
9,CN(Cc1ccccc1)C1CCNCC1.Cl,19.8
10,Cn1cc(C(=O)NS(=O)(=O)Nc2ccc(Br)cn2)c2ccccc21,5.91
11,COCCNc1nc(CSc2ccccc2)nc2sc(C)c(C)c12,-5.97
12,O=C(CC1CCCC1)N1CCN(S(=O)(=O)c2ccccc2)CC1,-36.5
13,O=C(CCN1C(=O)c2ccccc2C1=O)N1CCN(c2ccccn2)CC1,-24.4
14,OC(Cn1cccn1)c1ccccc1 (stereo not shown),22.1
15,O=C(Nc1ccc2c3c(cccc13)CC2)c1ccco1,-9.54
16,Cc1ccc2c(Cl)c(C(=O)Nc3cc(C)on3)sc2c1,4.55
17,CCCCNC(=O)CSc1nc2ccccc2c(=O)n1C1CCCC1,-38.1
18,CCS(=O)(=O)Nc1ccc(-c2cc(-c3ccccc3)c3cc(C)ccc3n2)cc1,0.812
19,CCCn1c(NC(=O)C2CCN(S(=O)(=O)c3cccs3)CC2)nc2ccccc21,-68.8
20,Cc1cc(C(=O)N2CCCC(N3CCN(c4cccc(Cl)c4)CC3)C2)nn1C (stereo not shown),-10.5
21,CCOC(=O)CSc1nnc(-c2cc(OC)c(OC)c(OC)c2)o1,12.1
22,COc1ccc(OC)c(N(CC(=O)O)S(=O)(=O)c2ccc(OC)c(OC)c2)c1,5.94
23,S=C(c1ccc(-c2ccc(Br)cc2)o1)N1CCOCC1,14
24,CC(=O)N1CN(C2CC(C)(C)NC(C)(C)C2)Cc2c1sc1c2CCCC1,6.77
25,COC(=O)c1nc(NC(=S)NC(=O)c2cccs2)sc1C,13.1
